In paper PMC7776573:
Results are given in words; binding and its absence hold for the method and conditions named. Binding seen in cells or lysates may run through a third protein. Some entries that bind do so weakly or less than the wild type. Tags and fused reporters may be left off the sequences shown.

T1: GST-EVH1 (Falafel Flfl^1-168aa, containing the EVH1 domain) (Drosophila melanogaster) (UniProt Q9VFS5)
T1 sequence: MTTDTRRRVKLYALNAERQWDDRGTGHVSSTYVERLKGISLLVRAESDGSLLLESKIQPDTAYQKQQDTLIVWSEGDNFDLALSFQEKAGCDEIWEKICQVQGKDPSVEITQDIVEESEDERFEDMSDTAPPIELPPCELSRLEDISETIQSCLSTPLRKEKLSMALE

T2: GST-Smk-1 (Falafel Flfl^169-361aa, containing the Smk-1 domain) (Drosophila melanogaster) (UniProt Q9VFS5)
T2 sequence: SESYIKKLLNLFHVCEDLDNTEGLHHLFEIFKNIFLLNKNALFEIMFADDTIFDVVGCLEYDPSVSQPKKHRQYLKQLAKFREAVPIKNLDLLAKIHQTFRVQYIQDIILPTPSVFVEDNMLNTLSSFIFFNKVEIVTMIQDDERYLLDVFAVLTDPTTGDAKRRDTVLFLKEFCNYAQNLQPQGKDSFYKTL

B1: Psc fragment aa 721-810 (domain or fragment, UniProt P35820 721-810)
chain: RAITPPSPSVQQSASPKSKGNNLDDSILMKPPSCMPPKSIASSKRKSKEPVKAVSKKQKLSPPLPTVDFKIRLPVTNGNSSGTASPKIEK
modifications: 35S-methionine label
B2: Psc fragment aa 786-876 (domain or fragment, UniProt P35820 786-876)
chain: TVDFKIRLPVTNGNSSGTASPKIEKPLMPPPAKPPMLAPRKLQPSAQFAPPPSPIHHHAGVQMSAPGNRTPIAKRYQPILPKASRPNPFAN
modifications: 35S-methionine label
B3: Grip75 (protein, UniProt Q9VKU7 1-650)
chain: MIHDLLLACRSHNPEQLGIKAFNETTVIDQFIHPCEREIFMDIIKIIKVYQEVEQFTHSSGRKSDTHGELPDSLHGYYLLNLAKGIEMALEEYYAEIGRLEKYCLGNERNSLSYVYNALYAKFPLLVFMRNLITEIHVLNLRGCVLLHNLHQQCEHGDIQLEKAIKIIMKPVKNAFFSSLAHWLLFGVIDDVHSEFFIKFTPTDAVDGSSFSKSATCSLLSAEKNPEDYIWQYEVNMSQLPGFFSIVLAEKVLFVGQTVLVFKMGRNVKVKNKTDPLAAKLAELDSDDIYQLWSGRESEFFKMVVDLSNEDTINVFRLEKVIIDIKNYVSARLSEIAVNEVDLERQMGLIKDFFLLGRGEFYLEFCSQMVGTMETYREERFKNVTRSFELAATVTGITDDLDKFSLICQRSTSEPDDTSDFNFLQGLSLKYEYEWPLNLLFSPTTIERYNNIFRFLLIIRTYQYEIQRVWAKQTWRAKSAKDVPPNNKIITLRNYLMFFLNNMQYYIQVDVLESQFGILMNVIKSRSDFEVIQRAHTVFLANVLSHCFLLNESETQLNVTGSQNRNPIYGTLLKLFGICEKFAHMTQTKDPSDDLEDEVDQLNESFGVQIASLIQLLVDVKSASCLGPLSQLLLRLDFNCWFSASHNTSA
modifications: 35S-methionine label
B4: Nipsnap (protein, UniProt Q9VXK0 1-273)
chain: MLKLRNLLAVGKSNNNAVRSLSTTPSRNDSESWFSKLLVRKIEPTKESHSRMLSDKEIIYALHTHNVRPDSMGSYLNNYKTTVALINEKKANLSCELVASWTVQVGDMDQCLHLWKYTGGFEKIDQAKEDLWNDPEYLSLMQERSKFLRSRHLQYLLAFSYWPQIASRTGKNIYEMRSYRLTPGTMIEWGNNWARAINYRKHNNEAFAGFFSQIGRLYNVHHIWCYKSLQDRKETREAAWRSPGWDECVAYTVPLIREMHCRVLAPTEFSPSQ
modifications: 35S-methionine label
B5: γ-Tub23C (protein, UniProt P23257 1-475)
chain: MPSEIITLQLGQCGNQIGFEFWKRLCLEHGISPSGVLEDFANDGLDRKDVFFYQADDDHYIPRAVLLDLEPRVINTIMGSVYSKLYNPENVYLSKHGGGAGNNWASGYSQGEKLQEEVFDIIDREADGSDSLEGFILCHSIAGGTGSGMGSFIMERLADRYPKKLIQTFSVFPNQDEISDVVVQPYNSMLTLKRLTTAADSVVVLDNTALNRIACDRLHIQNPSFSQINNLVSTIMSVSTTTLRYPSYMNNNLIGLTAPLIPTPQLHFLMTGYTPLTSDSDIHTQQLVNVRKTTVLDVMRRLLQPKNMMVSTGPDKSNHHCYISILNIIQGEVDPTQVHKSLQRIRDRKMAQFIPWGPTSIQVALSRSSPYVQSNHRVSGLMLANHTSICSLFERALNQYDKLRKRGAFLDQFRREDIFKDDLNELDESRETVDCLVQEYEAATREDYMQFSVKRGNGPVDSKSEDSRSVTSAGS
modifications: 35S-methionine label
B6: Spindle A (protein, UniProt Q27297 1-336)
chain: MEKLTNVQAQQEEEEEEGPLSVTKLIGGSITAKDIKLLQQASLHTVESVANATKKQLMAIPGLGGGKVEQIITEANKLVPLGFLSARTFYQMRADVVQLSTGSKELDKLLGGGIETGSITEIFGEFRCGKTQLCHTLAVTCQLPISQKGGEGKCMYIDTENTFRPERLAAIAQRYKLNESEVLDNVAFTRAHNSDQQTKLIQMAAGMLFESRYALLIVDSAMALYRSDYIGRGELAARQNHLGLFLRMLQRLADEFGVAVVITNQVTASLDGAPGMFDAKKPIGGHIMAHSSTTRLYLRKGKGETRICKIYDSPCLPESEAMFAILPDGIGDARES
modifications: 35S-methionine label
B7: Zw10 (protein, UniProt Q9W4X9 1-721)
chain: MEEEAPRFNVLEEAFNGNGNGCANVEATQSAILKVLTRVNRFQMRVRKHIEDNYTEFLPNNTSPDIFLEESGSLNREIHDMLENLGSEGLDALDEANVKMAGNGRQLREILLGLGVSEHVLRIDELFQCVEEAKATKDYLVLLDLVGRLRAFIYGDDSVDGDAQVATPEVRRIFKALECYETIKVKYHVQAYMLQQSLQERFDRLVQLQCKSFPTSRCVTLQVSRDQTQLQDIVQALFQEPYNPARLCEFLLDNCIEPVIMRPVMADYSEEADGGTYVRLSLSYATKEPSSAHVRPNYKQVLENLRLLLHTLAGINCSVSRDQHVFGIIGDHVKDKMLKLLVDECLIPAVPESTEEYQTSTLCEDVAQLEQLLVDSFIINPEQDRALGQFVEKYETYYRNRMYRRVLETAREIIQRDLQDMVLVAPNNHSAEVANDPFLFPRCMISKSAQDFVKLMDRILRQPTDKLGDQEADPIAGVISIMLHTYINEVPKVHRKLLESIPQQAVLFHNNCMFFTHWVAQHANKGIESLAALAKTLQATGQQHFRVQVDYQSSILMGIMQEFEFESTHTLGSGPLKLVRQCLRQLELLKNVWANVLPETVYNATFCELINTFVAELIRRVFTLRDISAQMACELSDLIDVVLQRAPTLFREPNEVVQVLSWLKLQQLKAMLNASLMEITELWGDGVGPLTASYKSDEIKHLIRALFQDTDWRAKAITQIV
modifications: 35S-methionine label
B8: Zwilch (protein, UniProt Q9VA00 1-641)
chain: MSASANLANVYAELMRRCGESYTITYGAPPTYLVSMVGAAEAGKKIVLVFKEDRNGAVARLRTTPTRAAPKKEGSADLDLTGSPLKDDCLVDAIADLSIDLQLDHSNPWKLEEEYQRGIPVDKARSIVCSEFLQLAEGLGSVWFLCDGSDLGQTQLLQYEFNPTHFSRGILSYQGVRPAYLVTSQALVRHHGKTPDETLIENSYQVNPHMRLRCSWTSSAALPLLVNLNDCDVALNHTFRVGDCGPLTQDFMNQLRILVYIREDIVSYHTDVKQGVSRDPTYRCGSGIDMDELRESINQTMTDVSGLIGRYSISNAEFDIEDVVQRAKVRQLTDLTDKLWELLKCCHSYKDLKIAFSMLFQCAARCNIVNTPTNKNRLAKIITELANRRLAMPCLSGAEPLELLLEIGLEKLYKDYEFIYTESKMCSTNLLKDDSSGASMDDGSPQNLPQLRKSLHNAVRGDPTPGAGMRKTLLHHHGAVNSRSTKYAGSDDDAGFKNSHFDEHESTERISKLFQIHCTLEHLLMMHIHLNLANVYNDVCSELLKKPPKLVESIDDQLSDVMDIRLSAHYVRDHLDGKDPYSRHITMRSHNKFRELKTTFYFNSENICPPNLAQCFQCDDKEMVKERTYHSWIYHKIRSLK
modifications: 35S-methionine label
B9: barrier-to-autointegration factor (BAF) (protein, UniProt Q9VLU0 1-90)
chain: MSGTSQKHRNFVAEPMGNKSVTELAGIGETLGGRLKDAGFDMAYTVLGQYLVLKKDEELFKDWMKEVCHASSKQASDCYNCLNDWCEEFL
modifications: 35S-methionine label

The binders below were run against T1, GST-EVH1 (Falafel Flfl^1-168aa, containing the EVH1 domain) (Drosophila melanogaster) (assay: pull-down; GST or GST-fused bait immobilised on glutathione sepharose 4B; 35S-methionine-labelled IVTT prey; 90 min at 4°C in WB1 (50 mM HEPES pH 7.5, 150 mM NaCl, 2 mM MgCl2, 1 mM EGTA, 1 mM DTT, 0.1% Triton X-100) with protease inhibitors and 0.5 mg/ml BSA; SDS-PAGE and autoradiography; only the target purified).

| Binder | binding |
| --- | --- |
| B1 | binds |
| B2 | binds |
| B3 | no binding |
| B4 | no binding |
| B5 | no binding |
| B6 | no binding |
| B7 | no binding |
| B8 | no binding |
| B9 | no binding |

Each binder was assayed against T2, GST-Smk-1 (Falafel Flfl^169-361aa, containing the Smk-1 domain) (Drosophila melanogaster) in the same assay as above.

| Binder | binding |
| --- | --- |
| B3 | binds |
| B4 | binds |
| B5 | binds |
| B6 | binds |
| B7 | binds weakly |
| B8 | binds weakly |
| B9 | no binding |
